The values that follow come from PubChem BioAssay AID1346428 (National Center for Advancing Translational Sciences (NCATS), 2018).

Each structure is given as a SMILES string. Values joined by “and” are separate entries in the source; they are usually repeats but may differ in a detail not shown here. Equal values may be shown once. In all, about 48,000 compounds went through this assay and about 1,200 (2.5%) were called active. Inconclusive results (about 2%) are left out.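 Rule for the calls: active = activation of at least 60% and not above a set upper limit (about 1 call in 100 departs from these limits); inconclusive = activation of 40% to 60%, or above that upper limit; inactive = activation under 40%.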 The list shows a part of the results. Where a structure was tested more than once in an assay, its records may differ in their call.

The assay concerns the target Probable G-protein coupled receptor 32 (Homo sapiens) (UniProt O75388). Briefly: qHTS for Agonists of Human Resolvin D1 Receptor DRV1. As to conditions: CHO-K1 GPR32 beta-arrestin PathHunter luminescence, 90 min; at 76.9 µM; stronger effect = higher value; zero percent set by DMSO-only wells. A digest of the protocol: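 PathHunter enzyme-fragment complementation, CHO-K1 GPR32 stable line; 2,500 cells/well, overnight attach; cpd 90 min 37 °C 5% CO2; detection reagent 1 h RT; chemiluminescence. DMSO = EC0.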
Chain of UniProt O75388 (O75388 whole entry, looked up, the tested form may be a part): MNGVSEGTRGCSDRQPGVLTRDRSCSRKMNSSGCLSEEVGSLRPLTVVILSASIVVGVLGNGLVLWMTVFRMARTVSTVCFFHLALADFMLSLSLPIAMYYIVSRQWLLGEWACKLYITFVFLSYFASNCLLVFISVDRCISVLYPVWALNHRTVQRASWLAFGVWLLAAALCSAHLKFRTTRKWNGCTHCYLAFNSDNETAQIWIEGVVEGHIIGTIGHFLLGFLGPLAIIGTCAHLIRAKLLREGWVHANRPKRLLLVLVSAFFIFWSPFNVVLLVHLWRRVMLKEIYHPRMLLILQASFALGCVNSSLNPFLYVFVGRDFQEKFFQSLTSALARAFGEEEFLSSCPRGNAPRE
A general note: qHTS replaces the single test concentration by a dilution series.
Regarding `CN(c1ccc(Cl)cc1)S(=O)(=O)c1nnc(NC(=O)c2ccco2)s1`, the activation was inactive: 21.9%.

Consider `CCOC(=O)c1[nH]c(C)c(C(=O)NCCc2ccccc2)c1C`, for which the activation is active: 84.6%.

For `COc1ccc(CCNC(=O)C(=O)Nc2ccc(C)c(C)c2)cc1OC`, the activation was inactive: -4.8%.

Take `CCCCC(=O)Nc1cccc(-c2nc3ccccc3s2)c1`: the activation was active: 91.8%.

Regarding `CCCCN(C)CC(O)Cn1cc(/C=C/C(=O)c2ccc(OCC)cc2)c2ccccc21` (stereo not given), the activation is inactive: 17%.

`Cc1cccc(-n2ccnc2SCC(=O)Nc2cc(C(F)(F)F)ccc2Cl)c1`: the activation is inactive: 5.71%.

For `CCOC(=O)c1ccc(CN(Cc2ccc(Cl)cc2Cl)S(=O)(=O)c2cccc(Cl)c2)cc1`, the activation was inactive: -15.8%.

Take `Cc1cc(-c2ccc(C)c(S(=O)(=O)N(C(C)C)C3CCCCC3)c2)on1`: the activation is inactive: -13.7%.

For `N[C@H]1CONC1=O`, the activation was inactive: 4.29%.

Regarding `O=C(O)CCSc1nnc(-c2ccc(Cl)cc2Cl)o1`, the activation is inactive: 19.5%.

For the molecule `CC1(C)O[C@H]2[C@@H](O1)[C@@H](C(=O)Nc1cc(F)ccc1F)O[C@@H]1OC(C)(C)O[C@@H]12`, the activation is inactive: -10.6%.

As to `CCn1c(=O)c2c(nc(C=Cc3ccc(OC)c(OC)c3)n2C)n(CC)c1=O`, the activation is inactive: -16%.

In the case of `Cc1cccc(-c2cc(C(=O)O)c3c(-c4ccc(F)cc4)[nH]nc3n2)c1`, the activation was inactive: -11.5%.

On to `Cc1ccc2nc(N(Cc3cccnc3)C(=O)CCc3ccccc3)sc2c1`, for which the activation is inactive: -12.5%.

Consider `COc1cc2c(cc1OC)C(C(C(=O)N(CCc1ccc(OC)c(OC)c1OC)CCc1ccc(OC)c(OC)c1OC)c1ccccc1)=NCC2` (stereo not given), for which the activation was inactive: 30.1%.

`COc1ccc(-c2nc3n(n2)C(c2cccc(C)c2)C(C(N)=O)=C(C)N3)cc1OC` (stereo not given): the activation was inactive: -10.2%.

For `CC(=O)c1ccc(NC(=O)c2nn(C)c3c2CS(=O)(=O)c2ccccc2-3)cc1`, the activation is inactive: -1.45%.

Take `O=C(CCBr)N1CCN(C(=O)CCBr)CC1`: the activation is inactive: -28.6%.

Turning to `Cc1cccc(NC(=O)c2ccc(F)c(S(=O)(=O)N3CCN(c4ccc(F)cc4)CC3)c2)c1`, the activation is inactive: -14.6%.

With `CCOC(=O)C1=C(CN2CCCCC2)NC(=O)NC1c1ccc(OC)cc1` (stereo not given), the activation was inactive: -4.81%.

Turning to `Cc1ccc(-c2cn3c(n2)sc2cc(C(=O)NC4CCCCC4)ccc23)cc1`, the activation is inactive: 0.609%.

`COc1ccc(CCNC(=O)CCn2c(=O)c3cccn3c3ccc(F)cc32)cc1OC`: the activation is inactive: -23.7%.

Take `CCOc1ccccc1NC(=O)c1cn(C2CCCCC2)c(=O)c2c1c1ccccc1n2C`: the activation is inactive: -8.36%.

For the molecule `CCN(CC)C(=O)Nc1ccc(OCC(O)CNC(C)(C)C)c(C(C)=O)c1` (stereo not given), the activation is inactive: 12.5%.

Take `CCc1ccccc1NC(=O)Cn1c(=O)oc2ccccc21`: the activation is inactive: -5.78%.

On to `CCCN(C(=O)Cn1nc(Cc2cccnc2)c2ccccc2c1=O)c1ccc(C(C)C)cc1`, for which the activation was inactive: -34.6%.

With `CCOc1ccc(CCNC(c2nnc(-c3ccccc3)o2)c2ccccc2Cl)cc1OCC` (stereo not given), the activation is inactive: -1.95%.

As to `Cc1ccc(S(=O)(=O)Nc2nc3n(n2)C(c2ccc(Cl)cc2)C=C(c2ccccc2)N3)cc1` (stereo not given), the activation was active: 88.5%.

For `O=C(CN1C(=O)CC(c2ccco2)Sc2ccccc21)Nc1ccc(OC(F)(F)F)cc1` (stereo not given), the activation is inactive: 10.7%.

`COc1ccc(CCNC(=O)c2cc(-c3ccc(C)c(C)c3)nc3ccccc23)cc1OC`: the activation was inactive: -17.6%.

In the case of `CCCn1c2ccc(C)cc2c2nnc(SCCN3CCCCC3)nc21`, the activation was inactive: 13.3%.

Consider `CC1=C(C(=O)OC2CCCCCC2)C(c2c(Cl)cccc2Cl)CC(=O)N1` (stereo not given), for which the activation is inactive: 35.7%.

Take `Cc1ccc(NC(=O)[C@H](Cc2ccccc2)N2Cc3ccccc3C2=O)cc1F`: the activation was inactive: 4.81%.

On to `COc1ccc(C(=O)NCC(c2cccs2)S(=O)(=O)c2cccs2)cc1` (stereo not given), for which the activation was active: 83%.

On to `CCOc1ccc(C2CC(=O)c3c([nH]c(C(=O)OC4CCCCCC4)c3C)C2)cc1` (stereo not given), for which the activation is inactive: -1.88%.

As to `CCOCCc1nn2c(=O)cc(COC(=O)c3ccc4c(c3)OCO4)nc2s1`, the activation is inactive: -7.17%.

In the case of `Cc1nn(C)c2c1c(C(F)(F)F)cc(=O)n2C(C)C(=O)NCc1ccccc1` (stereo not given), the activation is inactive: 29.6%.

As to `Cn1c(C(=O)Nc2cccc(Cl)c2)cc2c(=O)n(C)c3ccccc3c21`, the activation was inactive: -2.3%.

As for `O=C(c1ccco1)N1CCNCC1`, the activation is inactive: -52.8%.

With `COc1ccc(-c2nc(CS(=O)CC(=O)NCc3ccccc3Cl)c(C)o2)cc1OC` (stereo not given), the activation was inactive: -11.5%.

With `O=S(=O)(c1ccc(Br)cc1)N1CCn2cccc2C1c1ccc(Br)cc1` (stereo not given), the activation was inactive: 17.2%.

On to `Cc1ccc(CNc2nc3nc(C)c(Cl)c(C)n3n2)cc1`, for which the activation is inactive: -0.575%.

In the case of `Cc1ccc(Cl)cc1N1CCN(C(=O)C2CCN(S(=O)(=O)c3c(C)noc3/C=C/c3ccccc3F)CC2)CC1`, the activation is inactive: -1.52%.

Regarding `Cc1cccc(NC(c2nnc(-c3ccccc3)o2)c2ccc(F)cc2Cl)c1C` (stereo not given), the activation is inactive: -26.1%.

For `Cc1oc2c(c(C)cc3oc(=O)c(CC(=O)NCCc4ccc(Cl)cc4)c(C)c32)c1C`, the activation was inactive: -9.53%.

`Cc1ccc(-c2cn3c(n2)sc2cc(C(=O)NC4CCCCCC4)ccc23)c(C)c1`: the activation is inactive: -3.82%.

With `COc1cccc(-c2cn3c(n2)sc2cc(C(=O)NCCc4ccccc4)ccc23)c1`, the activation is inactive: -13.7%.

For the molecule `Cc1ccc(C)c(N2CCN(CCCNC(=O)c3ccc4nc(C(C)C)oc4c3)CC2)c1`, the activation was inactive: 44.1%.

For `O=C(NCc1ccccc1)c1ccc2c(c1)sc1nc(-c3ccc(F)cc3)cn12`, the activation is inactive: -11.9%.

Consider `CC(C)c1nn2c(=O)cc(COC(=O)COc3ccccc3F)nc2s1`, for which the activation was inactive: -23.2%.

As for `CCc1ccccc1NC(=O)CSc1nc2ccccc2nc1Cc1cccc(OC)c1`, the activation is inactive: -10.1%.

In the case of `Cc1cc(C)cc(NC(=O)c2cc3c(=O)n(Cc4ccco4)ccc3nc2C)c1`, the activation was inactive: -6.41%.

As for `Cc1nc2c(-c3ccc(F)cc3)c(C)nn2c(C)c1CCC(=O)NCc1cccc(Cl)c1`, the activation is inactive: -3.11%.

Consider `CCC(=O)N1CCc2cc(Br)cc(S(=O)(=O)N3CCN(c4cccc(Cl)c4)CC3)c21`, for which the activation was inactive: 10.6%.

For `O=C(OCC1CCCO1)c1ccc2c(c1)N(Cc1cccc(F)c1)C(=O)c1ccccc1S2(=O)=O` (stereo not given), the activation is inactive: -31.5%.

Consider `CC1CCc2nc(NC(=O)Cc3ccc(Cl)cc3)sc2C1` (stereo not given), for which the activation is inactive: 34.5%.

In the case of `CCOc1cccc(C2c3[nH]c4ccccc4c3CCN2C(=O)Cc2cccc(OCC)c2OCC)c1` (stereo not given), the activation is inactive: 15.1%.

On to `Cc1cc2c(cc1S(=O)(=O)CCC(=O)N(C)Cc1ccccc1)OCC(=O)N2`, for which the activation was inactive: -11.5%.

As for `CSc1cccc(NC(=O)N2CCN(S(=O)(=O)c3ccc4c(ccn4C)c3)CC2)c1`, the activation is inactive: 24.1%.

With `COc1ccc2c(CNCCc3ccccc3OC)c(C(=O)O)n(Cc3ccc(F)cc3Cl)c2c1`, the activation is inactive: 11.2%.

`Cc1cc(C)cc(NC(=O)CN(c2cccc(C)c2C)S(=O)(=O)c2ccccc2)c1`: the activation was inactive: 4.3%.

As for `CC1=C(C(=O)OC2CCCC2)C(c2ccc(Cl)cc2)CC(=O)N1` (stereo not given), the activation was inactive: 39.8%.

Turning to `O=C(CSc1nc(-c2ccccc2)no1)N1CCN(c2ccc(F)cc2)CC1`, the activation is inactive: 24.6%.

Regarding `COc1ccc(C2=NS(=O)(=O)N(C)C(C(=O)NC(C)c3ccccc3)=C2)cc1OC` (stereo not given), the activation was inactive: -8.62%.

With `COc1cccc(N2C(=O)CSC23C(=O)N(Cc2ccccc2F)c2ccccc23)c1` (stereo not given), the activation is inactive: -12.2%.

Take `COc1ccc(-c2nc(SCCOc3cc(C)ccc3C(C)C)n3[nH]c(=O)cc3n2)cc1`: the activation was inactive: -52.2%.

`Cc1cccc(NC(=O)C2CCN(S(=O)(=O)c3c(C)noc3/C=C/c3ccco3)CC2)c1C`: the activation was inactive: -25.9%.

On to `NS(=O)(=O)c1ccc(CCNC(=O)CCn2c(=O)c3cccn3c3cccnc32)cc1`, for which the activation was inactive: 0.515%.

In the case of `Cc1ccc(-n2ncc(C(=O)N(C)Cc3ccccc3)c2-n2cccc2)cc1`, the activation is inactive: 4.44%.

As for `Cc1cc(F)ccc1NC(=O)CN1C(=O)CCc2cc(S(=O)(=O)N3CCOCC3)ccc21`, the activation was inactive: -6.97%.

In the case of `COc1ccc(Cl)cc1NC(=O)c1cc2nc(-c3ccc(C)cc3)cc(C(F)(F)F)n2n1`, the activation is inactive: 30.2%.

`Cc1cc(Br)ccc1NC(=O)C(NS(=O)(=O)c1cccs1)c1ccccc1` (stereo not given): the activation is inactive: -8.92%.

Regarding `CC(CNC(=O)c1cc2ccccn2n1)c1ccccc1` (stereo not given), the activation is inactive: 11.4%.

Turning to `COc1cc2nc(N3CCN(C(=O)C4COc5ccccc5O4)CC3)nc(N)c2cc1OC` (stereo not given), the activation was active: 108% and inactive: 27.3%.

On to `CSc1nc(C)cc(Nc2cccc(C(=O)O)c2)n1`, for which the activation was inactive: -15.9%.

For the molecule `CCOC(=O)C(C)Nc1ncnc2onc(C)c12` (stereo not given), the activation is inactive: -16.7%.

Consider `COc1cc(NC(=O)CCCN2C(=O)CCn3nc(-c4cn(C)c5ccccc45)cc32)cc(OC)c1`, for which the activation is inactive: 20.1%.

`Cc1c(NC(=O)c2ccc(-c3ccc(F)cc3)o2)cccc1-c1nc2ncccc2o1`: the activation is inactive: 21.6%.

Take `Cc1sc2c(c1C)c(=O)n(-c1ccc(Cl)cc1)c(=O)n2CC(=O)c1ccccc1`: the activation was inactive: -7.96%.

In the case of `COc1cccc(C(=O)Nc2ccc3nc(SCC(=O)N4CCc5ccccc54)sc3c2)c1`, the activation was inactive: -6.83%.

As to `O=C(c1cnc(N2CCCCC2)c2ccccc12)N1CCN(c2ccc(F)cc2)CC1`, the activation was inactive: -24.3%.

With `Fc1ccc(Nc2nc(-c3ccc(F)cc3)c3c(n2)-c2ccccc2OC3)cc1`, the activation was inactive: -5.16%.

In the case of `O=c1[nH]c2ccc(S(=O)(=O)Nc3cc(Cl)ccc3O)cc2o1`, the activation was inactive: 37.5%.

With `CCOc1ccccc1CNC(=O)c1cc2oc3ccccc3c2n1CC`, the activation was inactive: -25.6%.

Consider `COc1cccc(CNC(=O)c2ccc3c(c2)sc2nc(-c4ccccc4)cn23)c1OC`, for which the activation is inactive: -5.18%.
